# Test results from PubChem BioAssay AID1631 (National Center for Advancing Translational Sciences (NCATS), 2009).
# About 890 (0.34%) of roughly 260,000 compounds were called active. Inconclusive means that the source gave no clear call. Such entries were picked first, then a sample of the others. Calls come from the whole dose curve; as a rule, active = well fitted activation curve with a large enough effect; inconclusive = small, poorly fitted or top-dose-only effect; inactive = no such curve, though single readings can be large or run the other way. Potencies of inconclusive entries are left out as doubtful fits.
# Molecular target: Pyruvate kinase PKM (Homo sapiens) (UniProt P14618)
# Assay: qHTS Assay for Activators of Human Muscle isoform 2 Pyruvate Kinase; note: nearly all actives have a fitted effect of over 55% in size
# Settings: purified PKM2, Kinase-Glo ATP luminescence; Potency: activation; activation: at 57.5 µM (top of the series), 0% is enzyme alone, no compound
# How it was run: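 hPK-M2, >95% pure; 0.1 mM ADP / 0.5 mM PEP final; imidazole pH7.2 buffer w/ 7 mM MgCl2, 50 mM KCl; 1 h RT; Kinase-Glo lum. Intermediate enzyme activity for dual inhibitor/activator qHTS.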
# % is set by controls: 0 for no effect and ±100 for the full control effect; potency is the fitted concentration of half-maximal effect; tags give direction and shape of the fitted curve.
# Chain of UniProt P14618 (P14618 whole entry, looked up, canonical isoform): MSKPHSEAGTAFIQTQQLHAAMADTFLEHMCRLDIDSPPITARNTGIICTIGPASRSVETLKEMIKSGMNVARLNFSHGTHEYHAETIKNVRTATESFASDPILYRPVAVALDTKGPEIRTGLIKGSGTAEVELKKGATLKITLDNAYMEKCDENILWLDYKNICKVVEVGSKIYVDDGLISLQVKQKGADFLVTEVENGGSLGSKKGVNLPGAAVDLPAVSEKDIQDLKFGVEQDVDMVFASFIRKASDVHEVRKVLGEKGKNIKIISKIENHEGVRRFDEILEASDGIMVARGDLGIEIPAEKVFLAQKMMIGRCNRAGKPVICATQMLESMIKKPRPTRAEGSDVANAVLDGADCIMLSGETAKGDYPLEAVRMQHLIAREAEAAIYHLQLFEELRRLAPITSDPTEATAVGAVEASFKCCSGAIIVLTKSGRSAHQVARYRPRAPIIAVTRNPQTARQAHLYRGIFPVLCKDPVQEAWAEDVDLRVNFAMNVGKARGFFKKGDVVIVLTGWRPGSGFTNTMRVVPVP
Structure (SMILES),activation,Potency
COc1ccc(-n2nc(C#N)c(Cl)cc2=O)cc1,inactive: -2.35%,–
NC(=O)COC(=O)c1ccc(NS(=O)(=O)c2ccc3c(c2)OCCO3)cc1,–,"inconclusive [rising, partial curve, poor fit]"
Cc1ccc(-c2nc3c(c(=O)c4ccccc4n3C)c(=O)n2Cc2ccco2)cc1,–,"inconclusive [rising, single point]"
O=C(Cc1ccc2c(c1)OCCO2)N1CCN(S(=O)(=O)c2cccs2)CC1,inactive: 10.9%,–
CC1=CC2=C(OC1N(C)C)c1cccc3cccc(c13)C2=O (stereo not drawn),–,"inconclusive [rising, partial curve]"
CC(NC(=O)CSC1=NCCS1)c1ccccc1 (stereo not drawn),–,"inconclusive [rising, single point]"
O=C(Nc1ccc(F)cc1F)N1CCN(c2ncccn2)CC1,–,"inconclusive [rising, single point]"
Cc1ccc(-c2nc3cnccn3c2Nc2ccc3c(c2)OCCO3)o1,–,"inconclusive [rising, full curve]"
CCc1cccc(CC)c1NC(=S)NCCc1ccc(O)c(O)c1,–,active: 22.4 µM
Cc1ccc(C(=S)NCS(=O)(=O)c2ccc(C)cc2)cc1,inactive: 11.7%,–
Oc1ccc(Br)cc1CNn1cnnc1,–,"inconclusive [rising, partial curve]"
CC(=O)c1coc2c1cc(O)c1ccccc12,inactive: -4.73%,–
COc1ccc(COCCN2CCN(S(=O)(=O)c3ccccc3)CCC2=O)cc1,–,"inconclusive [rising, partial curve]"
O=C(Nc1cc(Cl)cc(Cl)c1)N1CCCN(Cc2ccccc2)CC1,–,"inconclusive [rising, single point]"
Cc1c(C(=O)NCc2ccoc2)oc2ccc3c(c12)C(=O)CC(C)(C)O3,–,"inconclusive [rising, single point]"
CCOC(=O)c1ccc(NS(=O)(=O)c2cccc3nsnc23)cc1,–,"inconclusive [rising, partial curve]"
CNc1cc(-n2nc(C)cc2-c2ccccc2)ncn1,inactive: -14.7%,–
Cc1nnc(NC(=O)CSc2ccc(-c3ccc(Cl)cc3)nn2)s1,–,"inconclusive [rising, partial curve]"
COc1ccc(-c2csc(NC(=S)NC(=O)/C=C/c3ccco3)n2)cc1OC,–,"inconclusive [rising, full curve]"
O=C(Nc1ccc(S(=O)(=O)Nc2ccccn2)cc1)c1ccccc1,inactive: 3.96%,–
Cc1[nH]c(=S)sc1Cc1ccc(F)cc1,–,"inconclusive [rising, partial curve]"
N#Cc1cccc(NC(=O)CSc2nnc(-c3n[nH]c4ccccc34)o2)c1,–,"inconclusive [rising, single point]"
CC1=NOC(=O)/C1=C\c1ccc(-c2ccc(Cl)c(C(=O)O)c2)o1,–,"inconclusive [rising, single point]"
CC(C)(C)c1ccc(C(=O)c2c[nH]c(C(=O)O)c2)cc1,–,active: 31.6 µM
Cc1nc(NC(=O)CCN2C(=O)C3CC=CCC3C2=O)sc1C (stereo not drawn),inactive: -1.44%,–

Structure (SMILES),activation,Potency
CC(=O)Nc1ccc(/C(C)=N/Nc2nc(Nc3cccc4ccccc34)nc(N3CCOCC3)n2)cc1,–,"inconclusive [rising, partial curve]"
O=c1c(Cc2ccc(Cl)cc2)c(O)ccn1Cc1ccncc1,–,active: 8.91 µM
COc1ccc(C(=O)CCc2ccccc2O)c(OC)c1,–,"inconclusive [rising, single point]"
COc1ccc(C2Nc3ccccc3C(=O)N2Cc2ccco2)cc1COc1ccc(NC(C)=O)cc1 (stereo not drawn),–,"inconclusive [rising, single point]"
Cn1cccc1/C=N/N1CCN(c2ccccn2)CC1,–,"inconclusive [rising, partial curve]"
CCOC(=O)C1CCCN(C(=S)Nc2ccc(Nc3ccccc3)cc2)C1 (stereo not drawn),inactive: -13.1%,–
COc1cc(NC(=O)N2c3ccccc3Sc3ccccc32)c(C(=O)O)cc1OC,inactive: 1.58%,–
COc1ccc(Cn2c3nc4ccccc4nc3c3c(=O)n(Cc4ccco4)cnc32)cc1,–,"inconclusive [rising, single point]"
CCc1nnc(NC(=O)c2cccc(S(=O)(=O)N3CCN(c4ccccc4)CC3)c2)s1,–,"inconclusive [rising, single point]"
Oc1ccc2ccccc2c1C=Nc1ccc(Cl)cn1,inactive: -0.624%,–
O=C1c2[nH]nc(-c3ccccc3O)c2C(c2cccc(Cl)c2)N1CC1CCCO1 (stereo not drawn),inactive: 1.03%,–
CCn1c(=NC(=O)CSC(C)=O)sc2cc(F)ccc21,–,"inconclusive [rising, partial curve]"
COc1ccc2nc(N=Nc3ccc(N(C)C)cc3)sc2c1,inactive: -20.5%,–
N#C/C(=C\c1ccc(O)c(O)c1)S(=O)(=O)c1ccccc1,–,"inconclusive [rising, single point]"
CC(C)(C)c1cc(C(=S)N2CCN(CCO)CC2)cc(C(C)(C)C)c1O,inactive: 9.39%,–
Cc1cccc(NC(=O)CN2C(=O)S/C(=C\c3ccc(-c4cccc(C(=O)O)c4C)o3)C2=O)c1,–,"inconclusive [rising, partial curve]"
C=CCSc1nnc(CNC(=O)c2ccc(Cl)cc2)n1CC,inactive: -9.57%,–
COc1ccc(NC(=O)CC2C(=O)N(C)C(=S)N2Cc2ccco2)cc1 (stereo not drawn),–,"inconclusive [rising, partial curve]"
COc1cccc(CNC(=O)C2CCN(S(=O)(=O)c3ccc(F)cc3)CC2)c1,–,"inconclusive [rising, single point]"
CC1(C)CC(=O)C=C(Nc2ccccc2NC(=O)c2cnccn2)C1,–,"inconclusive [rising, partial curve]"
O=C1C2C3C=CC(CO)(O3)C2C(=O)N1c1ccc(-c2ccccc2)cc1 (stereo not drawn),–,"inconclusive [rising, single point]"
CC(=O)c1c(C)[nH]c(C(=O)Nc2cccc(C)c2C)c1C,–,"inconclusive [rising, single point]"
Cc1ccc(CNC(=O)C2CCN(S(=O)(=O)c3ccc4c(c3)OCCCO4)CC2)cc1,–,"inconclusive [rising, partial curve]"
CN1C(=O)Cc2cc(S(=O)(=O)NCc3cccs3)ccc21,–,"inconclusive [rising, partial curve]"
CSc1ccccc1NC(=S)N/N=C/c1cccn1Cc1cccc(C)c1,inactive: -3.92%,–

Structure (SMILES),activation,Potency
Cc1csc(NC(=O)CSc2nnc(-c3ccc(S(=O)(=O)N4CCCC4)cc3)o2)n1,–,"inconclusive [rising, partial curve]"
CCCn1c(-c2ccc(F)cc2)nc2c(NCCN(C(C)C)C(C)C)nc(C)nc21,inactive: -5.5%,–
O=C(O)c1cc(-c2ccc(/C=c3\sc4nc5ccc(Br)cc5n4c3=O)o2)ccc1Cl,inactive: 3.73%,–
Cc1ccc(NC(=O)C2C3C=CC4(CN(Cc5cccnc5)C(=O)C24)O3)cc1F (stereo not drawn),–,"inconclusive [rising, single point]"
C=CCn1c(=S)[nH]c2scc(-c3ccco3)c2c1=O,–,"inconclusive [rising, partial curve]"
CCc1nc2sc3ccccc3c(=O)c2c(=O)n1Cc1ccco1,–,"inconclusive [rising, partial curve, poor fit]"
O=C1C=CC(=O)N1c1ccc(O)cc1,–,"inconclusive [rising, partial curve]"
COc1cccc2cc(C(C)N(CCCN3CCOCC3)C(=S)Nc3ccccc3C)oc12 (stereo not drawn),–,"inconclusive [rising, single point]"
COC(=O)c1ccc(COc2ccccc2/C=C/C(=O)c2ccc(OCC(=O)O)cc2)cc1,–,"inconclusive [rising, single point]"
Cc1cccc(NS(=O)(=O)c2ccc3c(c2)oc(=O)n3C)c1C,–,"inconclusive [rising, partial curve]"
CC1=C(c2ccc(F)cc2)[N+](=O)C(C)(C)N1[O-],inactive: -11%,–
Cc1ccc(NC(=O)/C=C/c2ccc([N+](=O)[O-])s2)cc1,inactive: -4.93%,–
O=c1oc2ccc(Br)cc2cc1S(=O)(=O)c1ccc(F)cc1,–,active: 2.82 µM
COc1ccc(S(=O)(=O)N2CCN(C(=O)c3ccc([N+](=O)[O-])o3)CC2)cc1,–,"inconclusive [rising, partial curve]"
COc1ccc(C(=O)/C=C/c2ccc(N(C)C)cc2)c(OC)c1,inactive: -0.576%,–
O=C(Cc1c[nH]c2ccccc12)NCc1ccc(Cl)cc1Cl,–,"inconclusive [rising, single point]"
COC(=O)C1(S(=O)(=O)c2ccc(C)cc2)CCOCC1,–,"inconclusive [rising, full curve, poor fit]"
Cc1cc(-c2ccco2)c(C#N)c2nc3ccccc3n12,–,"inconclusive [rising, partial curve]"
CC(Oc1ccc(Br)cc1)c1nc2c3ccccc3nc(=S)n2[nH]1 (stereo not drawn),–,"inconclusive [rising, single point]"
O=c1c(Cl)cc(Cl)nn1-c1ccccc1,inactive: -4.24%,–
O=C(c1ccco1)N1CCN(C(=O)c2ccc(Cn3cc(Br)cn3)o2)CC1,–,"inconclusive [rising, single point]"
O=C(Cn1nc(-c2ccccc2)ccc1=O)Nc1ccc(NC(=O)c2ccccn2)cc1,–,"inconclusive [rising, single point]"
Cc1cc(N2CCN(S(=O)(=O)c3ccc4ccccc4c3)CC2)n2ncnc2n1,–,active: 17.8 µM
